# In the supplement of paper PMC10037445:
# The full ranking holds about 2,900 compounds; the median of “IRF Lucia reporter activity, fold change vs agonist alone” is about 0.9, and the highest 2% start at about 2.8. The list shows a part of the results.
# How the values were obtained:
# RAW-Dual [1] = assay: IRF Lucia reporter activity, fold change vs agonist alone; cytotoxicity flag (confluency mask): not cytotoxic; higher = enhanced IRF activity
# Procedure, shortened: (§1)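 RAW-Dual macrophages (50,000 cells/well in DMEM, 384-well plates) received 50 nL of library stock by pin tool, then a PRR agonist 1 h later, and were kept at 37 °C, 5% CO2. After 20 hours, supernatant was read for IRF by QuantiLuc luminescence and for NF-κB by QuantiBlue absorbance at 620 nm. Reporter activity is fold change over agonist-alone wells. Cytotoxic wells had IncuCyte confluency below 70% of agonist controls in both mask sets.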
# RAW-Dual [2] = assay: IRF Lucia reporter activity, fold change vs agonist alone; higher = enhanced IRF activity; settings: agonist: MPLA (TLR4) […]
# Procedure, shortened: as §1
# RAW-Dual [3] = assay: IRF Lucia reporter activity, fold change vs agonist alone; cytotoxicity flag (confluency mask): cytotoxic (confluency <70% of control); higher = enhanced IRF activity
# Procedure, shortened: as §1
# [4] = agonist: 3'3'-cGAMP (STING) 10 ug/mL
# [5] = library stock concentration (final ~1000-fold dilution): 10 mM, cytotoxicity flag (confluency mask): not cytotoxic
smiles,measurement,setting,value
C[C@@H](O)CCOC(=O)C[C@@H](C)O (library stock concentration (final ~1000-fold dilution): 10 mM),IRF Lucia reporter activity,RAW-Dual [1]; [4],0.761
same,IRF Lucia reporter activity,RAW-Dual [1]; agonist: LPS (TLR4) 0.1 ug/mL,0.967
Cc1cc(C)cc(Oc2ccc(CNC(=O)C(C)N)cc2C)c1 (configuration not stated) (library stock concentration (final ~1000-fold dilution): 10 mM),IRF Lucia reporter activity,RAW-Dual [1]; [4],0.332
same,IRF Lucia reporter activity,RAW-Dual [1]; agonist: LPS (TLR4) 0.1 ug/mL,1.75
CC1(COc2ccc3c(c2)ncn3-c2ccc3cccc(N4CCC(N)CC4)c3n2)COC1,IRF Lucia reporter activity,"RAW-Dual [2]; library stock concentration (final ~1000-fold dilution): 10 mM, cytotoxicity flag (confluency mask): cytotoxic (confluency <70% of control)",0.0613
CC1(COc2ccc3c(c2)ncn3-c2ccc3cccc(N4CCC(N)CC4)c3n2)COC1 (library stock concentration (final ~1000-fold dilution): 10 mM),IRF Lucia reporter activity,RAW-Dual [3]; [4],0.0398
same,IRF Lucia reporter activity,RAW-Dual [3]; agonist: LPS (TLR4) 0.1 ug/mL,0.0341
COc1ccccc1-c1cc(Nc2cccc(CS(N)(=O)=O)c2)ncn1,IRF Lucia reporter activity,RAW-Dual [2]; [5],0.162
COc1ccccc1-c1cc(Nc2cccc(CS(N)(=O)=O)c2)ncn1 (library stock concentration (final ~1000-fold dilution): 10 mM),IRF Lucia reporter activity,RAW-Dual [1]; [4],0.137
same,IRF Lucia reporter activity,RAW-Dual [1]; agonist: LPS (TLR4) 0.1 ug/mL,0.158
O=C(O)CCc1c[nH]c2ccccc12 (library stock concentration (final ~1000-fold dilution): 10 mM),IRF Lucia reporter activity,RAW-Dual [1]; [4],0.921
same,IRF Lucia reporter activity,RAW-Dual [1]; agonist: LPS (TLR4) 0.1 ug/mL,1.18
Cl.Nc1ccc(Cl)cc1C(=O)C(F)(F)F (library stock concentration (final ~1000-fold dilution): 10 mM),IRF Lucia reporter activity,RAW-Dual [1]; [4],0.946
same,IRF Lucia reporter activity,RAW-Dual [1]; agonist: LPS (TLR4) 0.1 ug/mL,1.33
Cl.Nc1ccc(Cl)cc1C(=O)C(F)(F)F,IRF Lucia reporter activity,RAW-Dual [2]; [5],1.22
COc1ccc(S(=O)(=O)Nc2nc(-c3cccc([N+](=O)[O-])c3)cs2)cc1OC (library stock concentration (final ~1000-fold dilution): 10 mM),IRF Lucia reporter activity,RAW-Dual [1]; [4],0.993
same,IRF Lucia reporter activity,RAW-Dual [1]; agonist: LPS (TLR4) 0.1 ug/mL,1.12
COc1cc2c(cc1OC)C(=O)C(CC1CCN(Cc3ccccc3)CC1)C2 (configuration not stated),IRF Lucia reporter activity,RAW-Dual [2]; [5],0.76
COc1cc2c(cc1OC)C(=O)C(CC1CCN(Cc3ccccc3)CC1)C2 (configuration not stated) (library stock concentration (final ~1000-fold dilution): 10 mM),IRF Lucia reporter activity,RAW-Dual [1]; [4],0.99
same,IRF Lucia reporter activity,RAW-Dual [1]; agonist: LPS (TLR4) 0.1 ug/mL,0.929
Cc1cc(N2CCCCC2)nc2ccccc12 (library stock concentration (final ~1000-fold dilution): 10 mM),IRF Lucia reporter activity,RAW-Dual [1]; [4],1.28
same,IRF Lucia reporter activity,RAW-Dual [1]; agonist: LPS (TLR4) 0.1 ug/mL,1.3
CCOc1ccc(Cc2cc(C3OC(SC)C(O)C(O)C3O)ccc2Cl)cc1 (configuration not stated) (library stock concentration (final ~1000-fold dilution): 10 mM),IRF Lucia reporter activity,RAW-Dual [1]; [4],1.38
same,IRF Lucia reporter activity,RAW-Dual [1]; agonist: LPS (TLR4) 0.1 ug/mL,1.12
COc1cc(-c2ccc(N=Nc3ccc4c(S(=O)(=O)O)cc(S(=O)(=O)O)c(N)c4c3O)c(OC)c2)ccc1N=Nc1ccc2c(S(=O)(=O)O)cc(S(=O)(=O)O)c(N)c2c1O,IRF Lucia reporter activity,RAW-Dual [2]; [5],0.828
COc1cc(-c2ccc(N=Nc3ccc4c(S(=O)(=O)O)cc(S(=O)(=O)O)c(N)c4c3O)c(OC)c2)ccc1N=Nc1ccc2c(S(=O)(=O)O)cc(S(=O)(=O)O)c(N)c2c1O (library stock concentration (final ~1000-fold dilution): 10 mM),IRF Lucia reporter activity,RAW-Dual [1]; [4],0.774
same,IRF Lucia reporter activity,RAW-Dual [1]; agonist: LPS (TLR4) 0.1 ug/mL,0.608
CCN(CC)CCCC(C)Nc1nc(C)cc(Nc2ccc3nc(C)cc(N)c3c2)n1.Cl.Cl.Cl (configuration not stated) (library stock concentration (final ~1000-fold dilution): 10 mM),IRF Lucia reporter activity,RAW-Dual [1]; [4],1.33
same,IRF Lucia reporter activity,RAW-Dual [1]; agonist: LPS (TLR4) 0.1 ug/mL,1.31
Cl.N=C(N)NCCCCC(N)C(=O)O (configuration not stated),IRF Lucia reporter activity,"RAW-Dual [2]; library stock concentration (final ~1000-fold dilution): 10 mM water, cytotoxicity flag (confluency mask): not cytotoxic",1.29
Cl.N=C(N)NCCCCC(N)C(=O)O (configuration not stated) (library stock concentration (final ~1000-fold dilution): 10 mM water),IRF Lucia reporter activity,RAW-Dual [1]; [4],1.35
same,IRF Lucia reporter activity,RAW-Dual [1]; agonist: LPS (TLR4) 0.1 ug/mL,1.02
CC(C(=O)Nc1ccc(Cl)cc1)C1CCC(c2ccnc3ccc(F)cc23)CC1 (configuration not stated) (library stock concentration (final ~1000-fold dilution): 10 mM),IRF Lucia reporter activity,RAW-Dual [1]; [4],0.225
same,IRF Lucia reporter activity,RAW-Dual [1]; agonist: LPS (TLR4) 0.1 ug/mL,0.289
COc1cc2c(cc1OC)CN(CCc1ccc(NC(=O)c3cc(OC)c(OC)cc3NC(=O)c3cnc4ccccc4c3)cc1)CC2 (library stock concentration (final ~1000-fold dilution): 10 mM),IRF Lucia reporter activity,RAW-Dual [1]; [4],1.1
same,IRF Lucia reporter activity,RAW-Dual [1]; agonist: LPS (TLR4) 0.1 ug/mL,1.23
COc1ccc(S(=O)(=O)NCc2ccc(C(=O)NCCc3ccc(Cl)cn3)cc2)cc1 (library stock concentration (final ~1000-fold dilution): 10 mM),IRF Lucia reporter activity,RAW-Dual [1]; [4],0.592
same,IRF Lucia reporter activity,RAW-Dual [1]; agonist: LPS (TLR4) 0.1 ug/mL,1.25
COc1nc(N)nc2c1ncn2C1OC(CO)C(O)C1O (configuration not stated) (library stock concentration (final ~1000-fold dilution): 10 mM),IRF Lucia reporter activity,RAW-Dual [1]; [4],1.08
same,IRF Lucia reporter activity,RAW-Dual [1]; agonist: LPS (TLR4) 0.1 ug/mL,1.09
COc1nc(N)nc2c1ncn2C1OC(CO)C(O)C1O (configuration not stated),IRF Lucia reporter activity,RAW-Dual [2]; [5],1.03
CC1CCOC2Cn3cc(C(=O)NCc4ccc(F)cc4F)c(=O)c(O)c3C(=O)N12 (configuration not stated),IRF Lucia reporter activity,"RAW-Dual [2]; library stock concentration (final ~1000-fold dilution): 2 mM, cytotoxicity flag (confluency mask): not cytotoxic",1.2
same,IRF Lucia reporter activity,RAW-Dual [2]; [5],1.3
CC1CCOC2Cn3cc(C(=O)NCc4ccc(F)cc4F)c(=O)c(O)c3C(=O)N12 (configuration not stated) (library stock concentration (final ~1000-fold dilution): 2 mM),IRF Lucia reporter activity,RAW-Dual [1]; [4],1.08
same,IRF Lucia reporter activity,RAW-Dual [1]; agonist: LPS (TLR4) 0.1 ug/mL,1.17
CC1CCOC2Cn3cc(C(=O)NCc4ccc(F)cc4F)c(=O)c(O)c3C(=O)N12 (configuration not stated) (library stock concentration (final ~1000-fold dilution): 10 mM),IRF Lucia reporter activity,RAW-Dual [1]; [4],1.13
same,IRF Lucia reporter activity,RAW-Dual [1]; agonist: LPS (TLR4) 0.1 ug/mL,1.24
